Laboratory results as given in PubChem BioAssay (NCATS).
The shares of active, inactive and inconclusive entries below differ from those in the screen. Where the call is inconclusive, the potency comes from a doubtful curve fit. Active and inactive are the calls of the source. Calls follow the shape of the dose curve; as a rule, active = well fitted inhibition curve with a large enough effect; inconclusive = small, poorly fitted or top-dose-only effect, or another doubt; inactive = no such curve, though single readings can be large or run the other way.

Each compound was assayed against DNA polymerase eta (Homo sapiens) (UniProt Q9Y253) (assay: qHTS for Inhibitors of Polymerase Eta: Confirmatory Assay for Cherry-picked Compounds (AID 720502)). Conditions: Pol eta primer extension, TAMRA/BHQ fluorescence, 10 min.
Outline: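 Human Pol eta (10 nM) was preincubated with compounds for 15 min at room temperature before adding 50 nM (final) DNA substrate: primer plus TAMRA reporter strand annealed to a BHQ-2-labeled template. Fluorescence (ex 525/em 598 nm) was read at 0 and 10 min.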
Potency is read from the fitted curve at half-maximal effect; tags tell the direction and shape of the fitted curve.

UniProt Q9Y253, sequence (Q9Y253 whole entry, looked up): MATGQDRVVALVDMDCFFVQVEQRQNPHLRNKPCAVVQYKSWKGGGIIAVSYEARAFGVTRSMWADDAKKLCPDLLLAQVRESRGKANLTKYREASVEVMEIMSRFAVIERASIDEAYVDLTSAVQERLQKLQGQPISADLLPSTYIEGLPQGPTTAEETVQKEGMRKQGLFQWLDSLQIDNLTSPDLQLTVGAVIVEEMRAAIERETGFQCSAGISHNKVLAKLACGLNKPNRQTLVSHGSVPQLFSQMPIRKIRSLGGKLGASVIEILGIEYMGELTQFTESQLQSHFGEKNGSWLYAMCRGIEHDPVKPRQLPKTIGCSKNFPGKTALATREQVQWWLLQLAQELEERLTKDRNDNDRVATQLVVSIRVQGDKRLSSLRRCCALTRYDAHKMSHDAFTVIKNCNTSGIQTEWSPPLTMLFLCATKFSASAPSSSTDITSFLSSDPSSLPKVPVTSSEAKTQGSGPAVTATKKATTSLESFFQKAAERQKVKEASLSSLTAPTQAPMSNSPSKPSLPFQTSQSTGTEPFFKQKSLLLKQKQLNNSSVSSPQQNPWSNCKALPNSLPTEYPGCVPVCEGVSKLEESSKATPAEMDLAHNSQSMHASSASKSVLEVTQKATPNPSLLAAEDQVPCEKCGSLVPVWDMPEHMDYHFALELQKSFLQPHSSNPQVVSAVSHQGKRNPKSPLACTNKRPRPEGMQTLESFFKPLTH

Potency, inconclusive:
O=C1C=C(c2ccc(C(=O)O)cc2)C[C@@H](c2ccc3c(c2)OCO3)C1 84.9 µM [inhibitor, single point]
COc1cc(/C=C(\C#N)c2nc3ccccc3[nH]2)ccc1OCc1ccc(F)cc1 84.9 µM [inhibitor, single point]
O=C1C(=Cc2cccc(O)c2O)SC(=S)N1CCCN1CCOCC1 60.1 µM [inhibitor, partial curve, poor fit]
Cc1c(NC(=O)C(C)OC(=O)c2ccc([N+](=O)[O-])s2)c(=O)n(-c2ccccc2)n1C (stereo not given) 95.3 µM [inhibitor, single point]
Cc1ccc(C(=O)N/C(=C\c2ccc(C)o2)C(=O)O)cc1 84.9 µM [inhibitor, single point]
O=C(O)c1ccc(CNc2ccccc2C(=O)O)cc1 84.9 µM [inhibitor, single point]
Cc1ccc2c(=O)cc(C(=O)Nc3nc4ccc(Cl)cc4s3)oc2c1C 95.3 µM [inhibitor, single point]
O=C(/C=C/c1ccco1)Nc1cccc(NC(=O)/C=C/c2ccco2)n1 84.9 µM [inhibitor, single point]
O=C(/C=C/c1ccc([N+](=O)[O-])o1)NNC(=O)c1ccc(F)cc1 84.9 µM [inhibitor, single point]
COc1ccc(N2CC(C(=O)Nc3nnc(SCCC4OCCO4)s3)CC2=O)cc1 (stereo not given) 95.3 µM [inhibitor, single point]
COc1cc(/C=C2/C(=N)N3C(c4ccccc4)=CSC3=NC2=O)ccc1OCC(=O)O 95.3 µM [inhibitor, single point]
O=C(O)c1ccc(CSc2nc3ccc(N4C(=O)C5C6C=CC(C6)C5C4=O)cc3s2)cc1 (stereo not given) 95.3 µM [inhibitor, single point]
O=C(CSc1ncn(-c2ccccc2)n1)Nc1nc2c(s1)CCCC2 84.9 µM [inhibitor, single point]
N#Cc1c(C(=O)c2cccs2)no[n+]1[O-] 84.9 µM [inhibitor, single point]
COc1ccc(/C=C/C(=O)NC(=S)Nc2ccc(S(=O)(=O)Nc3ccc(OC)nn3)cc2)cc1 95.3 µM [inhibitor, single point]
CCOC(=O)N(O)c1ccc(C=Cc2ccccc2)cc1 95.3 µM [inhibitor, single point]
Cc1cc(C(=O)Nc2sccc2C#N)c2ccccc2n1 75.7 µM [inhibitor, single point]
Cc1c(Cl)cnc(NC(=O)COC(=O)C2CCCC2)c1Cl 84.9 µM [inhibitor, single point]
NS(=O)(=O)c1ccc(-c2ccc(/C=N/Nc3ccc(C(=O)O)cc3)o2)cc1 84.9 µM [inhibitor, single point]
CCOc1ccc(-c2cc(C)n3nc(C(N)=O)cc3n2)cc1 84.9 µM [inhibitor, single point]
CCOC(=O)N1CCN(C(=O)Cn2ncc3ccccc32)CC1 95.3 µM [inhibitor, single point]
CCOC(=O)c1c(NS(=O)(=O)c2ccc(Br)cc2)sc2c1CCC2 95.3 µM [inhibitor, single point]
O=[N+]([O-])c1cc(Cl)cc(/C=N/NC(=S)Nc2cc(S(=O)(=O)N3CCOCC3)ccc2Cl)c1O 84.9 µM [inhibitor, single point]
CCNc1nc(NCC)n2c(SCC(=O)Nc3ccc(NC(C)=O)cc3)nnc2n1 84.9 µM [inhibitor, single point]
CC(C)C(CC(=O)NCc1ccco1)c1ccco1 (stereo not given) 84.9 µM [inhibitor, single point]
COc1cccc(/C=N/N2C(=O)CSC2=S)c1O 95.3 µM [inhibitor, single point]
Cc1ccc(-n2c3nc(=O)[nH]c(=O)c-3cc3cc([N+](=O)[O-])ccc32)cc1C 84.9 µM [inhibitor, single point]
CCc1ccc(NC(=O)c2ccc(Cn3nc(N4CCN(c5ccccc5)CC4)ccc3=O)o2)cc1 75.7 µM [inhibitor, single point]
CCC1=NN2C(=N)/C(=C/c3ccc(OS(=O)(=O)c4ccc(C)cc4)c(OC)c3)C(=O)N=C2S1 95.3 µM [inhibitor, single point]
Cc1c(C(=O)O)sc2nc(/C=C/c3ccccc3OC(F)F)[nH]c(=O)c12 84.9 µM [inhibitor, single point]
Cc1ccc([N+](=O)[O-])cc1S(=O)(=O)Nc1ccc(C(=O)NCc2ccccn2)cc1 84.9 µM [inhibitor, single point]

Potency, active:
O=C(COC(=O)CCC(=O)c1cccs1)NCc1ccco1 75.7 µM
Cc1cc(CNC(=O)c2cccc3c2C(=O)c2ccc(-c4ccc(F)cc4OCc4ccccc4)cc2S3(=O)=O)c(C(F)(F)F)o1 53.6 µM
CCc1oc(C(=O)O)cc1COC 30.1 µM
COc1cc(NC(=O)c2ccc3c(SCC(=O)O)c4c(nc3c2)CCC4)cc(OC)c1OC 53.6 µM
CC(C(=O)N(C)C1CCS(=O)(=O)C1)N1C(=O)/C(=C/c2ccco2)SC1=S (stereo not given) 75.7 µM
COc1cc(/C=C(/C#N)c2nc3ccccc3[nH]2)ccc1OCc1ccc(C(=O)O)o1 47.8 µM
O=[N+]([O-])c1cc(Br)cc(C=Nc2ccc3c(c2)OCO3)c1O 75.7 µM
O=c1[nH]c(=S)[nH]c2c1C(c1ccc(Br)cc1)c1c([nH]c(=S)[nH]c1=O)O2 1.69 µM
CC1=CCC(C(=O)O)C(C(=O)NC2CCCCC2)C1 (stereo not given) 84.9 µM
